Laboratory results as given in ChEMBL document CHEMBL1201862, “PubChem BioAssay data set” (2004).
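Exposure lasted 48 hours, with cells grown in 96-well plates and compounds tested at five concentrations. GI50 = concentration required for 50% inhibition of growth.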 Active and inactive are the calls of the source. No stated cut-off is given here; in the data, active = GI50 up to about 1.1 µM and inactive = higher. Peptide text beside a SMILES is read from it.

These compounds were tested on NCI-H322M (assay: NCI-60 cell line screen, 48 h).
With `CC(C)(C)C1=C(Br)C(F)(C(C)(C)C)OP1(=O)c1ccccc1` (centres undefined) the GI50 was inactive: 22.6 µM. With `O=c1c2ccccc2c2ccccc2c(=O)n1Cc1ccc2c(c1)OCO2` the GI50 was inactive: > 50.2 µM. With `CC1=NN(C(=O)CC(=O)Nc2ccccc2Cl)C(=O)C1/N=N/c1ccc(C(=O)O)cc1` (centres undefined) the GI50 was inactive: > 100 µM. For `O=C1NC(=S)NC(=O)C1=Cc1ccc(-c2ccccc2)cc1`, the GI50 was inactive: > 100 µM. In the case of `N#CC1=C(N)N(/N=C/c2ccco2)C(c2ccco2)C1(C#N)C#N` (centres undefined), the GI50 is reported as inactive: 16.9 µM. For `C=C(C)[C@@H]1CC[C@@]2(C)[C@H]1[C@H]1CCC3[C@@]4(C)CC[C@H](O)C(C)(C)[C@@H]4CC[C@@]3(C)[C@]1(C)C[C@@H]2O` (some centres undefined) [CALENDULADIOL], the GI50 was inactive: 37.8 µM. With `COC1OC(C)C(O)CC1OS(=O)(=O)c1ccc(C)cc1` (centres undefined) the GI50 was inactive: > 100 µM. `c1cc(-c2cn3c(n2)SCC3)ccn1` was tested, and the GI50 was inactive: > 100 µM. `CCOC(=O)c1c(SCc2cc(=O)[nH]c(=O)[nH]2)n(-c2ccccc2)c(=S)n(-c2ccccc2)c1=O` was tested, and the GI50 was inactive: > 100 µM. With `Cc1cc2c(cc1C)[n+]([O-])c(C(=O)CC(=O)C(=O)Nc1ccccc1C(C)C)c(C)[n+]2[O-]` the GI50 was inactive: > 100 µM. In the case of `N=c1oc2ccc([N+](=O)[O-])cc2cc1C(=O)Nc1ccccn1`, the GI50 is reported as inactive: 85.9 µM. With `CCC(=O)O[C@@H]1C2C(OC(C)=O)C34COC(C)([C@@H]3C3C(C[C@]3(C)OC(C)=O)[C@@H](OC(=O)c3ccccc3)C4=O)[C@H](OC(C)=O)[C@@]2(OC(C)=O)C[C@@H]1C` (some centres undefined) the GI50 was inactive: > 100 µM. With `CCCC(=O)OCC1(CO)C/C(=C/CC(C(C)C)C(C)C)C(=O)O1` (centres undefined) the GI50 was inactive: > 100 µM. With `C=C1C(=O)CC2C(=O)C(C)(O)CC/C=C(\C)C(=O)CC12` (centres undefined) the GI50 was inactive: > 100 µM. In the case of `Sc1nnc(-c2ccccc2Nc2ccccc2-c2nnc(S)n2-c2ccccc2)n1-c1ccccc1`, the GI50 is reported as inactive: 38 µM. For `Cc1c[nH]c2c(O)cc3c(c12)[C@H](CCl)CN3C(=O)c1cc2cc(NC(=O)Nc3ccc4[nH]c(C(=O)N5C[C@@H](CCl)c6c5cc(O)c5[nH]cc(C)c65)cc4c3)ccc2[nH]1` [BIZELESIN], the GI50 was active: 0.00104 µM. For `Clc1ccc2c(SCC3CO3)c3ccccc3nc2c1` (centres undefined), the GI50 was inactive: 4.95 µM. `Cc1ccccc1S(=O)(=O)OC1NS(=O)(=O)c2ccccc21` (centres undefined) was tested, and the GI50 was inactive: > 100 µM. With `CCCNc1[nH]c(C(C)=O)c(N)c1C(=S)Nc1ccccc1` the GI50 was inactive: 53.5 µM. For `CC1(C)NC(C)(C)/C(=N\O)C(=NO)/C1=N/O`, the GI50 was inactive: > 100 µM. For `O=c1cccccc1NCCCCCCCCCNc1cccccc1=O`, the GI50 was inactive: 25.8 µM. `COC(=O)C(=O)c1c2ccccc2n2ccc3c4ccccc4[nH]c3c12` was tested, and the GI50 was inactive: > 10 µM. For `CC(=O)N1C(c2[nH]c3ccccc3c2-c2ccccc2)CCN1c1ccccc1` (centres undefined), the GI50 was inactive: > 10 µM. In the case of `CC(C)NC1(C(N)=O)CCN(Cc2ccccc2)CC1`, the GI50 is reported as inactive: > 100 µM. With `CCCCCC/C=C/CCCCCCCc1cccc(O)c1C(=O)O` the GI50 was inactive: > 100 µM. With `COC(=O)c1ccccc1/C=C1\Cc2cc(C)c(C)cc2C1=O` the GI50 was inactive: > 100 µM. `Cc1cc(C(=O)NCCN(C)C)c2nc3ccccc3nc2c1` was tested, and the GI50 was inactive: 4.08 µM. `O=c1c2ccccc2[nH]c2c(Cl)cc(Cl)c(NC3CCCCC3)c12` was tested, and the GI50 was inactive: 30.2 µM. In the case of `O=C(Cn1c(=O)oc2ccccc21)N(c1ccccc1)c1ccccc1`, the GI50 is reported as inactive: > 100 µM. For `COC(=O)/C(=N\NC(=S)NN)C(C(=O)C(=O)Nc1ccccc1C(N)=O)c1nc2ccccc2nc1O` (centres undefined), the GI50 was inactive: > 100 µM. `COc1ccccc1C1C2=C(COC2=O)OC(C)(C)Oc2cc3c(cc21)OCO3` (centres undefined) was tested, and the GI50 was inactive: 4.35 µM. `CCOC(=O)c1cc(C2CCN(Cc3ccccc3)C2=O)c(C(=O)C(=[N+]=[N-])C(C)=O)[nH]1` (centres undefined) was tested, and the GI50 was inactive: > 100 µM. `O=C(NCCN1CCCCC1)c1ccc(I)cc1` was tested, and the GI50 was inactive: > 100 µM. `O=[N+]([O-])c1ccc2c(c1)/C(=N/N=C1c3ccccc3Cc3ccccc31)c1cc([N+](=O)[O-])cc([N+](=O)[O-])c1-2` was tested, and the GI50 was inactive: 2.56 µM. `O=S(=O)(O)C(CO)c1ccccc1.O=S(=O)(O)Cc1ccccc1` (centres undefined) was tested, and the GI50 was inactive: > 100 µM. For `Cc1ccc2c(CC(=O)O)cc(=O)oc2c1`, the GI50 was inactive: > 100 µM. With `NC1(C(=O)NC2(C(=O)O)CCCC2)CCCC1` (HELM PEPTIDE1{[NC1(C(=O)[*:2])CCCC1].[O=C(O)C1(N[*:1])CCCC1]}$$$$V2.0) the GI50 was inactive: > 100 µM. For `N=C(N)N/N=C/c1cnn(C(=N)N)c1`, the GI50 was inactive: > 100 µM. For `COC(=O)c1c[nH]c2c1-c1cc(C(=O)OCc3ccccc3)n(S(=O)(=O)c3ccc(C)cc3)c1C(=O)C2=O`, the GI50 was active: 0.45 µM. With `Nc1nc(N)c(N=O)c(OCC2CCCCC2)n1` the GI50 was inactive: 26.9 µM. With `O=c1[nH]c2cccccc-2c1-c1nc2ccccc2[nH]1` the GI50 was inactive: 28.6 µM. With `O=[N+]([O-])c1ccc(Cl)c(C2CC(c3cccc4ccccc34)=Nc3ccccc3S2)c1` (centres undefined) the GI50 was inactive: 50.4 µM. `COc1ccc([Se]c2ccc(OC)cc2)cc1` was tested, and the GI50 was inactive: > 100 µM. `CCOC(=O)C1C(=O)CC(C)(O)C(C(=O)OCC)C1c1ccc(N(C)C)cc1` (centres undefined) was tested, and the GI50 was inactive: > 100 µM. `CCOC(=O)/C(C(=O)c1ccccc1)=C1\N[C@H](C(=O)OCC)CS1` was tested, and the GI50 was inactive: > 100 µM. With `Cc1cc2[nH]c3c(C#N)c(-c4ccccc4)c(CN4CCOCC4)c(=O)n3c2cc1C` the GI50 was inactive: > 100 µM. For `c1ccc(CCN2CCCCCC2)nc1`, the GI50 was inactive: > 100 µM. In the case of `CCC1C2C=CC(CC2)N1S(=O)(=O)c1ccc(C)cc1` (centres undefined), the GI50 is reported as inactive: 23.9 µM. In the case of `CC(=O)NC1C(OCc2ccccc2)OC(CO)C(O)C1OCC(=O)NC(C(=O)NC(CCC(=O)NCCCCCC(=O)Nc1ccc2c(c1)CN1C(=O)c3ccccc3C1=N2)C(N)=O)C(C)C` (centres undefined), the GI50 is reported as inactive: 12.4 µM. `COc1cc2cc3c4c(cc(OC)c(OC)c4c2cc1OC)CCN3C(=O)N(C)C` was tested, and the GI50 was inactive: > 100 µM. For `C=CC(=O)C#Cc1cnc(OC)nc1OC`, the GI50 was inactive: > 100 µM. With `Cc1ccc([C@H]2CC(=O)C[C@H](c3ccc(C)cc3)C23C(=O)c2ccccc2C3=O)cc1` the GI50 was inactive: 33.5 µM. With `O=C1Nc2ccccc2C1Cc1ccccc1` (centres undefined) the GI50 was inactive: > 100 µM. For `COc1cc([C@@H]2OC(=O)C3C2C(=O)O[C@H]3c2ccc(O)c(OC)c2)ccc1O` (some centres undefined), the GI50 was inactive: > 100 µM. For `C(/C=N/N=C1NCCCN1)=N\N=C1NCCCN1`, the GI50 was inactive: > 100 µM. `O=C(O)c1cncc(C(=O)O)c1` was tested, and the GI50 was inactive: > 100 µM. With `COc1c(-c2nc3ccc(N4CCN(C)CC4)nc3[nH]2)cc(OC)c2c1nc(COC(C)=O)n2C` the GI50 was inactive: 58.7 µM. With `Cc1noc(/N=C2\C=C(Nc3onc(C)c3C)C(=O)c3ccccc32)c1C` the GI50 was inactive: > 100 µM. With `S=c1sc2c(s1)SCc1cccc(n1)CSc1sc(=S)sc1SCc1cccc(n1)CS2` the GI50 was inactive: > 100 µM. For `COc1ccc(C2=C(Cl)c3cc(OC)c(OC)cc3C2Cl)cc1OC` (centres undefined), the GI50 was inactive: 20.7 µM. In the case of `O=C(Nc1ccc2nc(O)n[n+]([O-])c2c1)C(F)(F)F`, the GI50 is reported as inactive: > 100 µM. With `Cc1cn(CCCCOC(=O)NC(CCCNC(=N)N)C(=O)O)c(=O)[nH]c1=O` (centres undefined) the GI50 was inactive: > 100 µM. For `CCCc1cn2c(/C=N/NC(=N)N)c(-c3cccc([N+](=O)[O-])c3)nc2s1`, the GI50 was inactive: 1.36 µM. In the case of `CN1C2CCC1CN(CCOC(c1ccc(F)cc1)c1ccc(F)cc1)C2`, the GI50 is reported as inactive: 46.6 µM. `Cc1cn([C@H]2[C@@H](CO)C[C@H]2O)c(=O)[nH]c1=O` was tested, and the GI50 was inactive: > 100 µM. For `O=C1c2ccccc2C(=O)c2c(NC(=O)C3CC3)ccc(NC(=O)C3CC3)c21`, the GI50 was inactive: > 100 µM. `C=CCN1C(=O)/C(=C/c2ccc(C)cc2)N=C1SC/C=C/C` was tested, and the GI50 was inactive: 91.6 µM. In the case of `Cc1ccc(S(N)(=O)=O)cc1` [P-TOLUENESULFONAMIDE], the GI50 is reported as inactive: > 1000 µM. In the case of `Cc1ccccc1/N=C/N(C)C`, the GI50 is reported as inactive: 83.9 µM. `CC(C)N(C(=O)C12C3C4C1C1C2C3C41C(=O)O)C(C)C` (centres undefined) was tested, and the GI50 was inactive: > 100 µM. For `O=C(/C=C/c1ccc(O)c(O)c1)c1ccc(O)cc1O` [BUTEIN], the GI50 was inactive: 12.2 µM. With `C=C1C(=O)C23CC1CCC2C12CO[C@H](O)[C@H]1C(C)(C)[C@H](OC(C)=O)C[C@H]2OC3=O` (some centres undefined) the GI50 was inactive: > 100 µM. With `Nc1c(S(=O)(=O)c2ccc(Cl)cc2)c2nc3ccccc3nc2n2ccnc12` the GI50 was inactive: 75.5 µM. With `CC(C)c1ccc(/C=C2\CSCC3=C2N=C(S)NC3c2ccc(C(C)C)cc2)cc1` (centres undefined) the GI50 was inactive: > 100 µM. For `O=C(O)C(Cc1ccccc1-c1ccccc1)C(=O)O`, the GI50 was inactive: > 100 µM. For `CCCCCCCSCC(O)COC(c1ccccc1)(c1ccccc1)c1ccccc1` (centres undefined), the GI50 was inactive: > 100 µM. For `C=CCCN1CCc2c([nH]c3ccccc23)C1C(=O)O` (centres undefined), the GI50 was inactive: > 100 µM. `C/C(=N\NC(=S)N1CC2CCC(CC2)C1)c1cccc(C)n1` was tested, and the GI50 was active: 0.373 µM. With `CC1OC(O[C@H]2C3C=CO[C@@H](OC4OC(CO)C(O)C(O)C4O)C3[C@@]3(COC(=O)/C=C/c4ccccc4)O[C@@H]23)C(O)C(O)C1O` (some centres undefined) the GI50 was inactive: > 100 µM. `COc1cc2c(c(OC)c1OC)-c1ccc(SC)c(=O)cc1C(CC(=O)Oc1cccc([N+](=O)[O-])c1)C2` (centres undefined) was tested, and the GI50 was active: 1.12 µM. In the case of `Cn1cc2ccccc2c1-c1nc(F)nc(Nc2ccc(N)cc2)n1`, the GI50 is reported as inactive: 38.4 µM. With `Cn1c2c(cc(-c3ccccc3)c1=O)COc1ccccc1-2` the GI50 was inactive: 42.3 µM. For `CN1CCN(c2cc3nc4cc(O)cc(O)c4c(O)c3cc2N)CC1`, the GI50 was inactive: 26.8 µM. In the case of `CCN(CC)CCC1CCCCN1CC(=O)N1c2ccccc2NC(=O)CC1C` (centres undefined), the GI50 is reported as inactive: > 100 µM. With `O[C@H]1[C@H]2c3cc4c(cc3CN3CCC(=C[C@@H]1O)[C@H]23)OCO4` [LYCORINE] the GI50 was inactive: 1.43 µM. In the case of `CC1(C)OC[C@@H]([C@H](C=O)OCc2ccccc2)O1`, the GI50 is reported as inactive: > 100 µM. For `O=C(/N=C1/OC(CN2CCOCC2)CN1C(=O)Nc1ccccc1)Nc1ccccc1` (centres undefined), the GI50 was inactive: > 100 µM. With `C=C1C(=O)O[C@@H]2C(=O)[C@@H](C)[C@@H]3C=CC(=O)[C@@]3(C)[C@@H](OC(=O)/C(C)=C\C)[C@H]12` [MULTISTATIN] the GI50 was inactive: 13.2 µM. In the case of `COc1cc2c(cc1OC)C13CCN4CC5=CCOC6CC(=O)N2C1C6C5CC43O` (centres undefined), the GI50 is reported as inactive: > 100 µM.
